The list shows a part of the results. The data describe in vitro nicking of single-stranded DNA by Rep domains (3 µM enzyme, 1 h, 37 °C); shown is the middle of each 90-letter strand. The score is log2 (uncut reads / reads without enzyme); the lower, the more was cut; hits are not called. Reads are scaled to the total; values above 0 arise when much of the pool is cut.
Key:
Test in all cases: uncleaved DNA left, log2 of reads against the no-enzyme library (log2 ratio); higher = less cleavage (more negative = more Rep cleavage of the k-mer); sequences stand for … in CTCGTCCG…ACCGGAGA
[1] = tested on: T1, Rep nickase domain of Muscovy duck circovirus
T1 sequence (residues 1-111, tag not shown): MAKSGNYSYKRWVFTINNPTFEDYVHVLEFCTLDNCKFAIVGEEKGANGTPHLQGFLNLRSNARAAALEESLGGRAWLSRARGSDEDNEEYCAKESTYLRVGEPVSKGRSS
Procedure: (§1)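 A pool of 90-nt single-stranded DNAs with seven random bases just before the constant AC of the nick site (name = the seven bases) was cut by 3 µM recombinant His6-SUMO-tagged Rep nickase domain (300 nM DNA, 50 mM HEPES pH 8.0, 50 mM NaCl, 1 mM MnCl2, 1 h, 37 °C, three replicates). Uncut DNA was amplified and sequenced.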

[2] = tested on: T2, Rep nickase domain of banana bunchy top virus
T2 sequence (residues 1-94, tag not shown): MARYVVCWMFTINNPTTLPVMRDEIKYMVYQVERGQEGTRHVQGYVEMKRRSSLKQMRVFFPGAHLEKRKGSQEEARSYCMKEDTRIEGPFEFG
Procedure: as §1

[3] = tested on: T3, Rep nickase domain of cabbage leaf curl virus
T3 sequence (residues 1-116, tag not shown): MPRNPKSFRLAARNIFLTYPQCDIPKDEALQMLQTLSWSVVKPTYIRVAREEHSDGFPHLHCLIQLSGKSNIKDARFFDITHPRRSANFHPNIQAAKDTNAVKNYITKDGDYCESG
Procedure: as §1

[4] = tested on: T4, Rep nickase domain of chickpea chlorotic dwarf virus
T4 sequence (residues 1-124, tag not shown): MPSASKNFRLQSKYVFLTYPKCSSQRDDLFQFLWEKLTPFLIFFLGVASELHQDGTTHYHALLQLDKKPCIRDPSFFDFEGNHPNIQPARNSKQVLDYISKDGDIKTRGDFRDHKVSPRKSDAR
Procedure: as §1

[5] = tested on: T5, Rep nickase domain of faba bean necrotic yellows virus
T5 sequence (residues 1-98, tag not shown): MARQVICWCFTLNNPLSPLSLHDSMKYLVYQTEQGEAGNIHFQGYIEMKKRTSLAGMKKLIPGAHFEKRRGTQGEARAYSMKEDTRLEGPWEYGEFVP
Procedure: as §1

[6] = tested on: T6, Rep nickase domain of maize striate mosaic virus
T6 sequence (residues 1-117, tag not shown): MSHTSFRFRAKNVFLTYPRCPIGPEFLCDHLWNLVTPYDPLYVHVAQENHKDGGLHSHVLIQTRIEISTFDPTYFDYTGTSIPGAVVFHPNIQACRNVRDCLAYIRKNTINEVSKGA
Procedure: as §1

[7] = tested on: T7, Rep nickase domain of porcine circovirus 2
T7 sequence (residues 2-116, tag not shown): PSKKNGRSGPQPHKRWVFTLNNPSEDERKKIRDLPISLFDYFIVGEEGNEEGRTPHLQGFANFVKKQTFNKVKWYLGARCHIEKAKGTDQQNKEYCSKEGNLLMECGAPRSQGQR
Procedure: as §1

[8] = tested on: T8, Rep nickase domain of tomato golden mosaic virus
T8 sequence (residues 1-124, tag not shown): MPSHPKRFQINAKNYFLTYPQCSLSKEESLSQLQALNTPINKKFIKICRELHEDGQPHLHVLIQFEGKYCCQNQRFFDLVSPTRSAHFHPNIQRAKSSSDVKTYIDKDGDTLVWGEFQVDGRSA
Procedure: as §1

[9] = tested on: T9, Rep nickase domain of tomato yellow leaf curl virus
T9 sequence (residues 1-136, tag not shown): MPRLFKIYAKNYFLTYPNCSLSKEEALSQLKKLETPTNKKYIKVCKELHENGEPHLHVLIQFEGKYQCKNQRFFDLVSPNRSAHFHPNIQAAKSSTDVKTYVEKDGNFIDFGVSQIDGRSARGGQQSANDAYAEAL
Procedure: as §1

[10] = tested on: T10, Rep nickase domain of wheat dwarf virus
T10 sequence (residues 1-137, tag not shown): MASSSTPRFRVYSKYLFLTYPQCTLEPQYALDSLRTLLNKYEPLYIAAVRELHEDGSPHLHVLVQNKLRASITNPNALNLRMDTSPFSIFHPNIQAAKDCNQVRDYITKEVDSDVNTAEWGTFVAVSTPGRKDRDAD
Procedure: as §1

Row | Sequence | uncleaved DNA left (log2) [1] | uncleaved DNA left (log2) [2] | uncleaved DNA left (log2) [3] | uncleaved DNA left (log2) [4] | uncleaved DNA left (log2) [5] | uncleaved DNA left (log2) [6] | uncleaved DNA left (log2) [7] | uncleaved DNA left (log2) [8] | uncleaved DNA left (log2) [9] | uncleaved DNA left (log2) [10]
1 | TCACCTC | 0.0879 | 0.00282 | 0.0881 | -0.176 | -0.00588 | 0.206 | -0.129 | -0.0393 | 0.109 | 0.000476
2 | CCTCCTG | -0.128 | -0.0699 | -0.223 | -0.13 | -0.152 | 0.116 | -0.0523 | -0.0148 | -0.194 | -0.0814
3 | CTCGAAC | -0.0298 | -0.153 | -0.0472 | -0.475 | -0.0818 | -0.731 | 0.0241 | -0.0499 | -0.076 | -0.194
4 | TATTCGG | -0.12 | -0.0257 | 0.504 | 1.41 | 0.00838 | 1.88 | 0.0298 | 0.0954 | -0.12 | 0.0134
5 | GTGGAAT | -0.024 | 0.00815 | 0.708 | 1.62 | -0.0801 | 2.21 | 0.201 | 0.17 | 0.0855 | 0.224
6 | GGTGGTT | 0.128 | 0.0465 | 0.546 | 1.17 | -0.052 | 1.95 | 0.123 | -0.0155 | 0.00924 | 0.134
7 | GGCCGGA | 0.111 | 0.0465 | 0.67 | 1.43 | 0.0165 | 1.81 | 0.219 | 0.0957 | 0.0527 | 0.129
8 | TTGTCCC | -0.0743 | -0.0699 | 0.228 | -0.00885 | -0.0709 | -0.116 | -0.371 | -0.0634 | -0.0598 | -0.0654
9 | TTGTTAC | -2.91 | -0.221 | -0.465 | -2.01 | 0.00789 | -0.381 | -2.74 | -0.139 | -0.00965 | -0.337
10 | GGCGCCA | 0.0833 | -0.00406 | 0.298 | 0.823 | 0.00286 | 1.53 | -0.0416 | 0.0717 | -0.032 | 0.117
11 | CTGTTAA | -0.0234 | 0.0342 | -0.153 | -0.384 | -0.0586 | -0.548 | 0.00979 | -0.103 | 0.0102 | -0.0762
12 | GTGTCTA | 0.0322 | 0.0446 | 0.284 | 0.868 | -0.0413 | 1.85 | 0.084 | 0.129 | -0.0371 | 0.0801
13 | AACCGAA | 0.163 | 0.0212 | -0.0321 | -0.339 | 0.0146 | -0.618 | 0.00583 | -0.0393 | 0.0754 | 0.116
14 | CCGATAT | -0.0132 | -0.179 | -0.0706 | -0.364 | -0.126 | -0.138 | -0.0528 | -0.166 | -0.235 | -0.115
15 | ACTGGCG | -0.0159 | 0.18 | 0.0559 | 1.46 | 0.119 | 1.01 | 0.217 | 0.0897 | 0.169 | 0.0468
16 | ACGTAAT | -1.26 | -0.303 | -0.615 | -0.992 | -0.459 | -0.709 | -3.71 | -0.0758 | -0.29 | -0.305
17 | GTGCCCT | -0.0409 | 0.0833 | 0.234 | 0.637 | -0.284 | 1.6 | -0.0515 | -0.0239 | 0.0438 | 0.0447
18 | CTGCCGG | -0.0022 | -0.0707 | 0.315 | 0.97 | 0.0808 | 0.773 | 0.124 | 0.0939 | -0.00193 | 0.025
19 | TAAATCA | 0.0873 | 0.201 | -1.94 | -2.51 | 0.15 | -0.0295 | 0.109 | -0.0312 | 0.222 | -0.859
20 | AGCATAC | 0.00813 | -0.00874 | -0.132 | -0.252 | 0.0282 | -0.299 | -0.0849 | 0.054 | -0.0938 | -0.0446
21 | GCTCTCC | -0.00537 | -0.00195 | -0.0905 | 0.288 | -0.0454 | 0.952 | 0.0554 | -0.0883 | -0.0196 | -0.00934
22 | GTCTGGA | 0.118 | 0.0971 | 0.339 | 0.867 | 0.0241 | 1.51 | 0.0736 | 0.137 | 0.171 | 0.131
23 | TCCCATG | -0.0377 | 0.0294 | -0.362 | -0.76 | -0.093 | -1.05 | 0.202 | 0.0189 | -0.00653 | -0.0767
24 | GCCACCC | -0.203 | -0.107 | 0.048 | 0.201 | -0.222 | 0.155 | -0.742 | -0.17 | -0.167 | -0.0819
25 | ATGATAT | -0.0759 | -0.114 | 0.094 | 0.0578 | -0.12 | 0.287 | -0.135 | 0.0387 | -0.0647 | -0.11
26 | GACGTGG | 0.0203 | -0.0199 | 0.185 | 0.373 | 0.0159 | 0.0482 | 0.155 | 0.0679 | -0.0215 | 0.00787
27 | ATCGGCA | 0.051 | 0.114 | -0.156 | -0.422 | 0.0256 | -0.84 | -0.0969 | -0.0684 | 0.0497 | 0.0658
28 | CGGTACT | -1.88 | -0.317 | 0.278 | -0.608 | -0.673 | 1.27 | -3.07 | -0.109 | -0.0932 | -0.0685
29 | TAGATTA | 0.0148 | -0.0603 | -0.34 | -2.09 | 0.00384 | -0.2 | -2.71 | 0.0736 | 0.0846 | -0.0105

Source: the supplement of paper PMC7826260
